# Some of the results follow.
# How the values were obtained:
# Experiment in all cases: glycan array binding signal (z-score within array); higher = stronger binding
# Settings in all cases: glycan notation: IUPAC condensed, linker removed
# Gal3S(b1-3)GalNAc = biological target: Gal3S(b1-3)GalNAc
# Procedure, shortened: (§1)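 Glycan array binding is given as a within-array Z-score, which can be read as non-binding when negative. The arrays, 3228 of them, came from the Consortium for Functional Glycomics database and were retained only where the protein sequence was available. Z-scores were averaged across arrays of the same protein sequence at different concentrations or buffers and across linkers.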
# Gal3S(b1-3)GlcNAc = biological target: Gal3S(b1-3)GlcNAc
# Procedure, shortened: as §1
# [1] = biological target: Gal3S(b1-3)[Fuc(a1-4)]GlcNAc
# Procedure, shortened: as §1
# Gal3S(b1-4)Glc = biological target: Gal3S(b1-4)Glc
# Procedure, shortened: as §1
# Gal3S(b1-4)Glc6S = biological target: Gal3S(b1-4)Glc6S
# Procedure, shortened: as §1
# Gal3S(b1-4)GlcNAc = biological target: Gal3S(b1-4)GlcNAc
# Procedure, shortened: as §1
# [2] = biological target: Gal3S(b1-4)[Fuc(a1-3)]Glc6S
# Procedure, shortened: as §1
# [3] = biological target: Gal3S(b1-4)[Fuc(a1-3)]GlcNAc
# Procedure, shortened: as §1
# [4] = biological target: Gal3S(b1-4)[Fuc(a1-3)]GlcNAc6S
# Procedure, shortened: as §1
# Gal3S4S(b1-4)GlcNAc = biological target: Gal3S4S(b1-4)GlcNAc
# Procedure, shortened: as §1
# Gal3S6S(b1-4)GlcNAc = biological target: Gal3S6S(b1-4)GlcNAc
# Procedure, shortened: as §1
# Gal3S6S(b1-4)GlcNAc6S = biological target: Gal3S6S(b1-4)GlcNAc6S
# Procedure, shortened: as §1
# Gal4S(b1-4)GlcNAc = biological target: Gal4S(b1-4)GlcNAc
# Procedure, shortened: as §1
# Gal4S6S(b1-4)GlcNAc = biological target: Gal4S6S(b1-4)GlcNAc
# Procedure, shortened: as §1
# Gal6P(b1-4)GlcNAc = biological target: Gal6P(b1-4)GlcNAc
# Procedure, shortened: as §1
# Gal6S(b1-3)GlcNAc = biological target: Gal6S(b1-3)GlcNAc
# Procedure, shortened: as §1
# Gal6S(b1-3)GlcNAc6S = biological target: Gal6S(b1-3)GlcNAc6S
# Procedure, shortened: as §1
# Gal6S(b1-4)Glc = biological target: Gal6S(b1-4)Glc
# Procedure, shortened: as §1
# Gal6S(b1-4)Glc6S = biological target: Gal6S(b1-4)Glc6S
# Procedure, shortened: as §1
# Gal6S(b1-4)GlcNAc = biological target: Gal6S(b1-4)GlcNAc
# Procedure, shortened: as §1
# Gal6S(b1-4)GlcNAc6S = biological target: Gal6S(b1-4)GlcNAc6S
# Procedure, shortened: as §1
# GalNAc(a1-3)Gal = biological target: GalNAc(a1-3)Gal
# Procedure, shortened: as §1
# GalNAc(a1-3)GalNAc = biological target: GalNAc(a1-3)GalNAc
# Procedure, shortened: as §1
# [5] = biological target: GalNAc(a1-3)GalNAc(b1-3)Gal(a1-4)Gal(b1-4)Glc
# Procedure, shortened: as §1
# [6] = biological target: GalNAc(a1-3)GalNAc(b1-3)Gal(a1-4)Gal(b1-4)GlcNAc
# Procedure, shortened: as §1
# GalNAc(b1-3)Gal = biological target: GalNAc(b1-3)Gal
# Procedure, shortened: as §1
# [7] = biological target: GalNAc(b1-3)Gal(a1-4)Gal(b1-4)GlcNAc
# Procedure, shortened: as §1
# [8] = biological target: GalNAc(b1-3)Gal(a1-4)Gal(b1-4)GlcNAc(b1-3)Gal(b1-4)Glc
# Procedure, shortened: as §1
# [9] = biological target: GalNAc(b1-3)Gal(a1-6)Gal(b1-4)Glc
# Procedure, shortened: as §1
# GalNAc(b1-3)GalNAc = biological target: GalNAc(b1-3)GalNAc
# Procedure, shortened: as §1
# GalNAc(b1-3)GlcNAc = biological target: GalNAc(b1-3)GlcNAc
# Procedure, shortened: as §1
# GalNAc(b1-4)Gal(b1-4)Glc = biological target: GalNAc(b1-4)Gal(b1-4)Glc
# Procedure, shortened: as §1
# GalNAc(b1-4)GlcNAc = biological target: GalNAc(b1-4)GlcNAc
# Procedure, shortened: as §1
# [10] = biological target: GalNAc(b1-4)GlcNAc(b1-2)Man
# Procedure, shortened: as §1
# [11] = biological target: GalNAc(b1-4)GlcNAc(b1-2)Man(a1-3)[GalNAc(b1-4)GlcNAc(b1-2)Man(a1-6)]Man(b1-4)GlcNAc(b1-4)GlcNAc
# Procedure, shortened: as §1
# [12] = biological target: GalNAc(b1-4)GlcNAc(b1-3)GalNAc(b1-4)GlcNAc
# Procedure, shortened: as §1
# GalNAc(b1-4)GlcNAc6S = biological target: GalNAc(b1-4)GlcNAc6S
# Procedure, shortened: as §1
binder,measurement,setting,value
"UDA (Urtica dioica), P11218 (protein) MMMRFLSAVVIMSSAMAVGLVSAQRCGSQGGGGTCPALWCCSIWGWCGDSEPYCGRTCENKCWSGERSDHRCGAAVGNPPCGQDRCCSVHGWCGGGNDYCSGSKCQYRCSSSVRGPRVALSGNSTANSIGNVVVTEPLFDQMFSHRKDCPSQGFYSYHSFLVAAESFPAFGTIGDVATRKREVAAFLAHISQATSGERSDVENPHAWGLCHINTTTVTENDFCTSSDWPCAAGKKYSPRGPIQLTHNFNYGLAGQAIGEDLIQNPDLVEKDPIISFKTALWFWMSQHDNKPSCHDIVLNANSAANRIPNKGVIGNIISRAFGHDDFAVRSSSIGFYKRYCDMLGVSYGHDLKYWFDNTPSSEFQRIQMRVAA",glycan array binding signal (z-score),Gal3S(b1-3)GalNAc,-0.179
same,glycan array binding signal (z-score),Gal3S(b1-3)GlcNAc,-0.182
same,glycan array binding signal (z-score),[1],-0.17
same,glycan array binding signal (z-score),Gal3S(b1-4)Glc,-0.179
same,glycan array binding signal (z-score),Gal3S(b1-4)Glc6S,-0.185
same,glycan array binding signal (z-score),Gal3S(b1-4)GlcNAc,0.131
same,glycan array binding signal (z-score),[2],-0.167
same,glycan array binding signal (z-score),[3],-0.184
same,glycan array binding signal (z-score),[4],0.367
same,glycan array binding signal (z-score),Gal3S4S(b1-4)GlcNAc,0.273
same,glycan array binding signal (z-score),Gal3S6S(b1-4)GlcNAc,-0.177
same,glycan array binding signal (z-score),Gal3S6S(b1-4)GlcNAc6S,-0.179
same,glycan array binding signal (z-score),Gal4S(b1-4)GlcNAc,0.416
same,glycan array binding signal (z-score),Gal4S6S(b1-4)GlcNAc,-0.174
same,glycan array binding signal (z-score),Gal6P(b1-4)GlcNAc,-0.183
same,glycan array binding signal (z-score),Gal6S(b1-3)GlcNAc,-0.184
same,glycan array binding signal (z-score),Gal6S(b1-3)GlcNAc6S,-0.181
same,glycan array binding signal (z-score),Gal6S(b1-4)Glc,-0.188
same,glycan array binding signal (z-score),Gal6S(b1-4)Glc6S,-0.182
same,glycan array binding signal (z-score),Gal6S(b1-4)GlcNAc,-0.18
same,glycan array binding signal (z-score),Gal6S(b1-4)GlcNAc6S,-0.177
same,glycan array binding signal (z-score),GalNAc(a1-3)Gal,-0.19
same,glycan array binding signal (z-score),GalNAc(a1-3)GalNAc,-0.191
same,glycan array binding signal (z-score),[5],-0.179
same,glycan array binding signal (z-score),[6],-0.177
same,glycan array binding signal (z-score),GalNAc(b1-3)Gal,-0.174
same,glycan array binding signal (z-score),[7],-0.139
same,glycan array binding signal (z-score),[8],-0.166
same,glycan array binding signal (z-score),[9],-0.176
same,glycan array binding signal (z-score),GalNAc(b1-3)GalNAc,-0.181
same,glycan array binding signal (z-score),GalNAc(b1-3)GlcNAc,-0.185
same,glycan array binding signal (z-score),GalNAc(b1-4)Gal(b1-4)Glc,-0.176
same,glycan array binding signal (z-score),GalNAc(b1-4)GlcNAc,0.054
same,glycan array binding signal (z-score),[10],-0.181
same,glycan array binding signal (z-score),[11],-0.111
same,glycan array binding signal (z-score),[12],-0.05
same,glycan array binding signal (z-score),GalNAc(b1-4)GlcNAc6S,0.203
